Nine variants from the supplement of paper PMC12217912 can be followed below.

Sequences and labels used below:
B1: TEV protease; numbered along this chain (parent)
chain: MGESLFKGPRDYNPISSSICHLTNESDGHTTSLYGIGFGPFIITNKHLFRRNNGTLVVQSLHGVFKVKDTTTLQQHLVDGRDMIIIRMPKDFPPFPQKLKFREPQREERICLVTTNFQTKSMSSMVSDTSCTFPSGDGIFWKHWIQTKDGQCGSPLVSTRDGFIVGIHSASNFTNTNNYFTSVPKNFMELLTNQEAQQWVSGWRLNADSVLWGGHKVFMVKPEEPFQPVKEATQL

The list shows a part of the results. The full chains were built here from the parent and the listed change. Inactive controls read about 0.05.
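Also: Bxb1 expression induced with 0.2% (w/v) L-rhamnose at OD600 near 0.5, cultures sampled hourly, flipped fraction per protease–substrate barcode pair counted by paired-end Illumina sequencing.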

The variants in the experiment derive from B1. Nature of the experiment: raw area under fraction-flipped curve 0-4 h after induction (AUC4h, not background-subtracted), DNA-recorder readout of cleavage of the substrate (dimensionless); higher = more cleavage of the substrate by the protease variant. The settings on record: temperature: 34 °C; time window: 0-4 h after rhamnose induction.
For MGESLFKGPRTYNPISSSICHLTNESDGHTTSLYGIGFGPFIITNKHLFRRNNGTLVVQSLHGVFKVKDTTTLQQHLVDGRDMIIIRMPKDFPPFPQKLKFREPQREERICLVTTNFQTKSMSSMVSDTSCTFPSGDGIFWKHWIQTKDGQCGSPLVSTRDGFIVGIHSASNFTNTNNYFTSVPKNFMELLTNQEAQQWVSGWRLNADSVLWGGHKVFMVKPEEPFQPVKEATQL [D11T], the “area with substrate ENLYEQS” value is 0.0643, the “area with substrate ENLYGQS” value was 0.0627, the “area with substrate ENLYMQS” value was 0.0903 and the “area with substrate ENLYPQS” value was 0.0655. The “area with substrate ENLYWQS” value came out at 0.0715.

On to MSESLFKGPRDYNPISSSICHLTNESDGHTTSLYGIGFGPFIITNKHLFRRNNGTLVVQSLHGVFKVKDTTTLQQHLVDGRDMIIIRMPKDFPPFPQKLKFREPQREERICLVTTNFQTKSMSSMVSDTSCTFPSGDGIFWKHWIQTKDGQCGSPLVSTRDGFIVGIHSASNFTNTNNYFTSVPKNFMELLTNQEAQQWVSGWRLNADSVLWGGHKVFMVKPEEPFQPVKEATQL [G2S], for which the “area with substrate ENLYEQS” value was determined as 0.0695, the “area with substrate ENLYKQS” value amounted to 0.0703 and the “area with substrate ENLYRQS” value amounted to 0.0483.

On to MHESLFKGPRDYNPISSSICHLTNESDGHTTSLYGIGFGPFIITNKHLFRRNNGTLVVQSLHGVFKVKDTTTLQQHLVDGRDMIIIRMPKDFPPFPQKLKFREPQREERICLVTTNFQTKSMSSMVSDTSCTFPSGDGIFWKHWIQTKDGQCGSPLVSTRDGFIVGIHSASNFTNTNNYFTSVPKNFMELLTNQEAQQWVSGWRLNADSVLWGGHKVFMVKPEEPFQPVKEATQL [G2H], for which the “area with substrate ENLYEQS” value was 0.0826, the “area with substrate ENLYGQS” value amounted to 0.0796, the “area with substrate ENLYHQS” value amounted to 0.0881 and the “area with substrate ENLYIQS” value was determined as 0.18. The “area with substrate ENLYKQS” value was 0.0528, the “area with substrate ENLYQQS” value worked out at 0.0633 and the “area with substrate ENLYSQS” value turned out to be 0.096.

Consider MGESLFKGPRDYNPISSSICHLTNESDGHTISLYGIGFGPFIITNKHLFRRNNGTLVVQSLHGVFKVKDTTTLQQHLVDGRDMIIIRMPKDFPPFPQKLKFREPQREERICLVTTNFQTKSMSSMVSDTSCTFPSGDGIFWKHWIQTKDGQCGSPLVSTRDGFIVGIHSASNFTNTNNYFTSVPKNFMELLTNQEAQQWVSGWRLNADSVLWGGHKVFMVKPEEPFQPVKEATQL [T31I], for which the “area with substrate ENLYEQS” value came to 0.0663, the “area with substrate ENLYGQS” value was determined as 0.0562, the “area with substrate ENLYHQS” value worked out at 0.0481 and the “area with substrate ENLYKQS” value was 0.0623. Also, the “area with substrate ENLYMQS” value came out at 0.11, the “area with substrate ENLYQQS” value was 0.0504, the “area with substrate ENLYVQS” value amounted to 0.13 and the “area with substrate ENLYYQS” value was determined as 0.0665.

For the variant MGESLFKGPRDYNPISSSICHLTNESDGHTTSLYGIGFGPFIITNKHLFRRNNGTLVGQSLHGVFKVKDTTTLQQHLVDGRDMIIIRMPKDFPPFPQKLKFREPQREERICLVTTNFQTKSMSSMVSDTSCTFPSGDGIFWKHWIQTKDGQCGSPLVSTRDGFIVGIHSASNFTNTNNYFTSVPKNFMELLTNQEAQQWVSGWRLNADSVLWGGHKVFMVKPEEPFQPVKEATQL [V58G], the “area with substrate ENLYEQS” value amounted to 0.0525, the “area with substrate ENLYGQS” value worked out at 0.0473, the “area with substrate ENLYNQS” value is 0.0568 and the “area with substrate ENLYPQS” value was 0.0473. Further, the “area with substrate ENLYWQS” value came to 0.0609.

As for MGESLFKGPRDYNPISSSICHLTNESDGHTTSLYGIGFGPFIITNKHLFRRNNGTLVSQSLHGVFKVKDTTTLQQHLVDGRDMIIIRMPKDFPPFPQKLKFREPQREERICLVTTNFQTKSMSSMVSDTSCTFPSGDGIFWKHWIQTKDGQCGSPLVSTRDGFIVGIHSASNFTNTNNYFTSVPKNFMELLTNQEAQQWVSGWRLNADSVLWGGHKVFMVKPEEPFQPVKEATQL [V58S], the “area with substrate ENLYEQS” value came out at 0.0619, the “area with substrate ENLYGQS” value came to 0.0607, the “area with substrate ENLYMQS” value came to 0.08 and the “area with substrate ENLYNQS” value was 0.0855. Also, the “area with substrate ENLYQQS” value was 0.0471, the “area with substrate ENLYRQS” value was found to be 0.0566, the “area with substrate ENLYSQS” value is 0.0302 and the “area with substrate ENLYVQS” value came out at 0.0876. In addition, the “area with substrate ENLYWQS” value turned out to be 0.0875.

For the variant MGESLFKGPRDYNPISSSICHLTNESDGHTTSLYGIGFGPFIITNKHLFRRNNGTLVDQSLHGVFKVKDTTTLQQHLVDGRDMIIIRMPKDFPPFPQKLKFREPQREERICLVTTNFQTKSMSSMVSDTSCTFPSGDGIFWKHWIQTKDGQCGSPLVSTRDGFIVGIHSASNFTNTNNYFTSVPKNFMELLTNQEAQQWVSGWRLNADSVLWGGHKVFMVKPEEPFQPVKEATQL [V58D], the “area with substrate ENLYEQS” value was 0.0515, the “area with substrate ENLYIQS” value was 0.0267, the “area with substrate ENLYNQS” value is 0.042 and the “area with substrate ENLYRQS” value was found to be 0.0369. The “area with substrate ENLYWQS” value came out at 0.0543.

Turning to MGESLFKGPRDYNPISSSICHLTNESDGHTTSLYGIGFGPFIITNKHLFRRNNGTLQVQSLHGVFKVKDTTTLQQHLVDGRDMIIIRMPKDFPPFPQKLKFREPQREERICLVTTNFQTKSMSSMVSDTSCTFPSGDGIFWKHWIQTKDGQCGSPLVSTRDGFIVGIHSASNFTNTNNYFTSVPKNFMELLTNQEAQQWVSGWRLNADSVLWGGHKVFMVKPEEPFQPVKEATQL [V57Q], the “area with substrate ENLYEQS” value came out at 0.0677, the “area with substrate ENLYHQS” value is 0.162, the “area with substrate ENLYMQS” value amounted to 0.105 and the “area with substrate ENLYNQS” value was determined as 0.0643. Further, the “area with substrate ENLYRQS” value amounted to 0.0493.

MGESLFKGPRDYNPISSSICHLTNESDGHTTSLYGIGFGPFIITNKHLFRRNNGTLVVHSLHGVFKVKDTTTLQQHLVDGRDMIIIRMPKDFPPFPQKLKFREPQREERICLVTTNFQTKSMSSMVSDTSCTFPSGDGIFWKHWIQTKDGQCGSPLVSTRDGFIVGIHSASNFTNTNNYFTSVPKNFMELLTNQEAQQWVSGWRLNADSVLWGGHKVFMVKPEEPFQPVKEATQL [Q59H]: the “area with substrate ENLYEQS” value was 0.0685, the “area with substrate ENLYGQS” value was determined as 0.0766, the “area with substrate ENLYHQS” value came to 0.0685 and the “area with substrate ENLYIQS” value is 0.122. Besides, the “area with substrate ENLYKQS” value came out at 0.0575, the “area with substrate ENLYMQS” value worked out at 0.0974, the “area with substrate ENLYNQS” value is 0.0607 and the “area with substrate ENLYQQS” value was 0.0704. The “area with substrate ENLYRQS” value was found to be 0.0713, the “area with substrate ENLYSQS” value was 0.0613, the “area with substrate ENLYTQS” value came to 0.112 and the “area with substrate ENLYVQS” value stood at 0.131. Also, the “area with substrate ENLYWQS” value came out at 0.061 and the “area with substrate ENLYYQS” value was found to be 0.0673.
